# Experimental data: PubChem BioAssay AID488969 (Vanderbilt High Throughput Screening Facility, 2010)
# Over roughly 110,000 compounds, “z-score” has its median near -0.1; the highest 2% begin near 2. The list shows a part of the results. The source made the active and inactive calls.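 The calls were made as follows: active = z-score in the third read window above 3 or below -3; inactive = the rest.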
# Target: Metabotropic glutamate receptor 8 (Rattus norvegicus) (UniProt P70579)
# Assay: rat mGluR8 modulators via GIRK flux, primary screen, cell-based, thallium flux, HTS (AID 488969)
# Details: HEK293 rat mGluR8, GIRK (G protein-gated inwardly rectifying potassium channel) thallium flux, FluoZin2; at 10 µM; stronger effect = higher value; submaximal glutamate (EC20) added with thallium
# Sequence of UniProt P70579 (P70579 whole entry, looked up): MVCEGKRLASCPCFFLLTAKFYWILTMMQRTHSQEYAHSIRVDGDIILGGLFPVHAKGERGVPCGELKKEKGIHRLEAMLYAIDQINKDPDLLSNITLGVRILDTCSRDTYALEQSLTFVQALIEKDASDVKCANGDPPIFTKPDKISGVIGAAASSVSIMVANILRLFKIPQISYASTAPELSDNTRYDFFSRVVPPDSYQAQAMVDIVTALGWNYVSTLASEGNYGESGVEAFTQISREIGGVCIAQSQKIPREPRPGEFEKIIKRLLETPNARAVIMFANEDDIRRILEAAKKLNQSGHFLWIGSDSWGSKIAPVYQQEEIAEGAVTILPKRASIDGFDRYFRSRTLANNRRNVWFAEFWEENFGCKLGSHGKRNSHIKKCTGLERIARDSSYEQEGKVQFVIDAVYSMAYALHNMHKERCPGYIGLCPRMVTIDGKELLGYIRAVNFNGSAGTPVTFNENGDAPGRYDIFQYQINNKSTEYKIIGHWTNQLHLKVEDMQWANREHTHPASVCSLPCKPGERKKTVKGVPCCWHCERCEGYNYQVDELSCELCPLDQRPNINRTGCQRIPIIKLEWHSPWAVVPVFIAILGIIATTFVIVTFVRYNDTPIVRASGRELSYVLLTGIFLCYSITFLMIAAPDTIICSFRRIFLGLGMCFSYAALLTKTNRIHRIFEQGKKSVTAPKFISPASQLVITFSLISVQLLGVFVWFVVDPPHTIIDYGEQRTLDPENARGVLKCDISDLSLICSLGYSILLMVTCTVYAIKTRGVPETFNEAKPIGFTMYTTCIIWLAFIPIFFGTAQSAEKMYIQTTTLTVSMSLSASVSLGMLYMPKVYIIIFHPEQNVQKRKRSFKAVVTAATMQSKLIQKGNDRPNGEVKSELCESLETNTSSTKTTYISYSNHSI
row,SMILES,z-score
1,CCCc1nc(NCc2ccc3c(c2)OCO3)c2nnn(Cc3ccccc3Cl)c2n1,-0.0876
2,Cc1cccc(NC(=O)NC(=S)NC(=O)c2ccccc2)c1,2.86
3,NC(=O)C1(N2CCCCC2)CCN(C(=O)c2cccs2)CC1,-0.0357
4,O=C(CCn1c2c(c3ccccc31)CCCC2)NNC(=O)c1ccccc1Cl,0.468
5,COc1ccccc1N(CC(=O)N1CCCCCC1)S(C)(=O)=O,0.103
6,COc1ccc(CNC(=O)C2CSC(c3ccc(OC)cc3)N2C(C)=O)cc1 (configuration not stated),0.415
7,CN(Cc1ccccc1)C(=O)c1cccc(N2C(=O)NC3CC2(C)Oc2ccccc23)c1 (configuration not stated),-0.383
8,Cc1ccc(-c2noc(COc3ccccc3C)n2)cc1,0.286
9,Cc1cccc(C)c1NC(=O)C(c1ccccc1)N1CCC1=O (configuration not stated),-0.175
10,N#Cc1cc2c(nc1SCC(=O)N1CCCCC1)CCCCC2,-0.17
11,O=C(NCCN1CCOCC1)C1CCC(=O)N1Cc1ccccc1Cl (configuration not stated),-0.22
12,COC(=O)C(C(=O)Nc1ccccc1C)C1CCCC1 (configuration not stated),-0.14
13,O=S(=O)(Nc1cccnc1)c1ccc(Cl)c(C(F)(F)F)c1,0.0113
14,O=C1[C@H]2[C@@H](C(=O)N1c1cccc3ccccc13)C1(C(=O)c3ccccc3C1=O)N1CCC[C@@H]21,-0.278
15,CCOC(=O)C1=C(C)Nc2nc3ccccc3n2C1c1ccncc1 (configuration not stated),0.18
16,CCc1ccc(CCC(=O)Nc2ncc(Cc3ccccc3Cl)s2)o1,-0.492
17,COc1ccc(N(C(=O)COc2ccccc2)C2C=CS(=O)(=O)C2)c(OC)c1 (configuration not stated),-0.438
18,Cc1n[nH]c(C)c1N=Nc1cc(Cl)ccc1Cl,-0.193
19,c1ccc(-n2nnnc2SCc2cccc(CSc3nnnn3-c3ccccc3)n2)cc1,-0.941
20,COc1cccc(C2c3c(oc4ccc(F)cc4c3=O)C(=O)N2CCN2CCOCC2)c1OC (configuration not stated),-0.574
21,COc1ccc(Cn2c(C)c(C)c(C#N)c2NC(=O)Nc2cccc(Cl)c2)cc1,-0.0483
22,C/C(Cl)=C\Cn1c(Nc2ccc(C)cc2)nc2c1c(=O)n(C)c(=O)n2C,-0.373
23,CN=c1scc(-c2cccs2)n1/N=C/c1ccc(O)c(O)c1O,active: 3.01

row,SMILES,z-score
1,CN(Cc1ccccc1)C(=O)CSc1nnc(-c2ccco2)n1-c1ccccc1,-0.258
2,O=C(CNC(=O)C1CCCCC1)Nc1ccccc1Cl,-0.138
3,Cc1ccccc1OCC(=O)NC(=S)Nc1ccc(Br)c(C)n1,0.414
4,O=S(=O)(Cc1ccccc1Cl)Nc1ccccn1,1.91
5,Cc1cc(OCC(=O)Nc2ccc3oc(-c4ccncc4)nc3c2)ccc1Cl,0.0332
6,CCCCOC(=O)c1ccc(NC(=O)c2ccccc2OC)cc1,-0.0471
7,O=C(NCc1ccco1)c1ccc2snnc2c1,0.448
8,O=C(Nc1ccc2c(c1)OCCO2)C1c2ccccc2C(=O)N2CCc3ccccc3C12 (configuration not stated),-0.455
9,O=c1nc(N(c2ccccc2)c2ccccc2)[nH]c(=O)[nH]1,-0.611
10,CCOC(=O)c1c(NC(=O)CSc2nnc3c(n2)[nH]c2ccccc23)sc2c1CCN(C)C2,-0.225
11,O=C(NNC(=S)Nc1ccc(F)cc1)c1ccccc1OC(F)F,-0.00644
12,COc1cc(C(C)=O)ccc1COc1ccc(C(=O)OCC(N)=O)cc1OC,-0.313
13,COc1cccc(C(=O)c2c[nH]c(C(=O)NCc3ccco3)c2)c1,-0.00435
14,COc1ccc(CNc2ccccc2)cc1Br,-0.14
15,Cc1ccc(S(=O)(=O)NCC(=O)N(CC(=O)NCc2ccco2)Cc2cccs2)cc1,-0.406
16,CC(=O)Nc1sc2c(c1C(N)=O)CCCC2,0.39
17,Cc1cccc2cc(CN(Cc3ccccc3)C(=O)c3cccc(F)c3)c(Cl)nc12,-0.49
18,O=C(Oc1ccc2c(c1)C(=O)c1ccccc1CO2)c1ccccc1,-0.673
19,CCOC(=O)Cc1cc(=O)n2[nH]c(C)cc2n1,-0.169
20,O=S1CCCSC1c1cccnc1 (configuration not stated),-0.0374
21,COC(=O)c1c(N(S(C)(=O)=O)S(C)(=O)=O)sc2c1CCN(c1ncc(C(F)(F)F)cc1Cl)C2,0.174
22,C/C(=N\NC(=O)COc1ccc(C)cc1C(C)C)c1cc2ccccc2o1,-0.17
23,O=C1c2ccc3c4c(ccc(c24)C(=O)N1Cc1cccnc1)C(=O)N(Cc1cccnc1)C3=O,-0.223

row,SMILES,z-score
1,Cc1c(/C=N/N=C2\CCC3C4CCc5cc(O)ccc5C4CCC23C)cnn1C (configuration not stated),0.0219
2,O=C(c1cc(-c2cccs2)nc2ccccc12)N1CCN(S(=O)(=O)c2cccc(F)c2)CC1,0.0151
3,COC(=O)NNC(=O)COc1ccc(Br)c(C)c1,-0.0617
4,O=C(COc1cc(Cl)ccc1Cl)Nc1nnc(CC(=O)N2CCOCC2)s1,-0.147
5,CC1(Br)C2CCCC1C2S(=O)(=O)c1ccccc1 (configuration not stated),-0.376
6,CCOC(=O)N1CCN(S(=O)(=O)c2ccc(F)c(C(=O)Nc3cc(C)cc(C)c3)c2)CC1,-0.295
7,c1ccc(-n2cccc2CNC2CCCCC2)cc1,2.02
8,O=S(=O)(c1ccc(Br)s1)N1CCN(c2ncccn2)CC1,-0.48
9,CN1CCN(C(=O)c2cn(-c3ccccc3)nc2-c2cccnc2)CC1,-0.051
10,COc1ccc(-n2c(=S)[nH]c3ccccc32)cc1,1.9
11,ON=C1CCN(c2ncc(C(F)(F)F)cc2Cl)CC1,-0.0465
12,CCOc1ccc(N(CC(=O)Nc2ccc(C)cc2)S(=O)(=O)c2c(C)noc2C)cc1,-0.0886
13,Cc1nn(CCC(=O)O)c(C)c1C,-0.13
14,O=C(Nc1ccc(S(=O)(=O)N2CCc3ccccc3C2)cc1)c1ccccc1,0.0396
15,O=C(NCc1ccccc1Cl)c1cccc(NC(=O)c2ccccc2)c1,-0.126
16,N#C/C(=C\c1cc(Cl)ccc1O)C(=O)NC1CCCCC1,-0.177
17,Cc1ccc(C(=O)n2cnnc2N)cc1,-0.81
18,COc1ccc(C(=O)CSc2nnc(-c3cccs3)n2-c2ccccc2)cc1,-0.159
19,CCOC(=O)/C(C#N)=C/c1cc2ccc(C)cc2nc1Cl,-0.211
20,O=C(Nc1ccccc1Br)C1CCN(C(=O)Cc2ccccc2)CC1,-0.238
21,Fc1ccc(NC(=S)Nc2ccc(F)c(Cl)c2)cc1Cl,-0.0109
22,N#Cc1nc(-c2ccc(Cl)cc2)oc1NCCc1ccccn1,0.158
23,CN(C)/N=C/c1cc(Cl)cc([N+](=O)[O-])c1O,0.0575

row,SMILES,z-score
1,COC(=O)c1ccc(CSc2nnc(-c3c[nH]c4ccccc34)n2C)o1,0.445
2,CCOC(=O)C1(S(=O)(=O)c2ccc(Cl)cc2)CCN(Cc2ccccc2)CC1,0.106
3,O=C(NCc1ccc(F)cc1)c1ccc(N2CCc3ccccc32)c([N+](=O)[O-])c1,0.777
4,N#CC1=C(N)n2c(s/c(=C\c3cccs3)c2=O)=C(C#N)C1c1cccs1 (configuration not stated),-0.507
5,CC(C)CNS(=O)(=O)c1ccc(CCC(=O)NCc2ccco2)cc1,-0.0382
6,CCN1CCN(C(c2cccs2)C(C)NC(=O)c2ccccc2)CC1 (configuration not stated),0.014
7,Cc1ccc(O)c(C(=O)c2cc(C#N)c(=O)n(CC3CCCO3)c2)c1 (configuration not stated),-0.26
8,CCOC(=O)C1CCN(C(=O)CC(C)c2ccccc2)CC1 (configuration not stated),0.272
9,COc1cc(-c2nn3c(-c4cccnc4)nnc3s2)cc(OC)c1OC,0.0695
10,COc1cccc(-n2nnnc2SCC(=O)Nc2nc3c(s2)CCCC3)c1,0.00301
11,CC1=C(C(N)=O)C(c2ccccc2F)NC(=O)N1 (configuration not stated),0.00558
12,COc1cc(/C=C2\N=C3CCCCCN3C2=O)ccc1O,-0.0976
13,CCc1cccc(C)c1NC(=O)CSc1ncn[nH]1,-0.417
14,Cc1ccccc1C(=O)N/N=C/c1ccc(OCC(=O)N2CCCCC2)cc1,-0.178
15,COc1cc(NC(=O)c2ccccc2)c(OC)cc1Cl,-0.449
16,N#CC1=C(N)Oc2n[nH]c(-c3ccccn3)c2C1c1c(F)cccc1Cl (configuration not stated),-1.02
17,O=C1c2ccc3c4c(ccc(c24)C(=O)N1c1ccc2ccccc2c1)CC3,0.233
18,O=C(Cc1ccc(Cl)cc1)NNC(=O)c1cnccn1,0.185
19,CC1=C(C(=O)Nc2ccccn2)C(c2ccc(F)cc2)n2ncnc2N1 (configuration not stated),0.147
20,COC(=O)c1cc(Br)ccc1-c1ccc(/C=N/n2nnnc2N)o1,-0.559
21,CCOC(=O)C1=C(C)C(c2ccccc2)NC(=S)N1 (configuration not stated),0.0117
22,CCOc1ccc(C(=O)NC(=S)Nc2ccc(N3CCC(C)CC3)cc2)cc1[N+](=O)[O-],0.955
23,CCOC(=O)N1CCN(C(=O)c2ccc(OC)c(OC)c2)CC1,0.883

row,SMILES,z-score
1,CCOC(=O)c1ccc(NC(=O)CN(c2ccc(C)cc2)S(=O)(=O)c2c(C)nn(C)c2C)cc1,0.0534
2,O=C(c1n[nH]c(=O)c2ccccc12)N1CCOCC1,0.339
3,Cc1cc(C)cc(NC(=O)c2cc(Cl)sc2Cl)c1,-0.258
4,O=C(CCc1nc(-c2ccccc2)no1)NCc1cccnc1,0.315
5,CC(NCC(O)COCc1cccs1)C1CC2CCC1C2 (configuration not stated),-0.0756
6,Cc1ccsc1C(=O)c1sccc1C,0.139
7,O=C1c2[nH]nc(-c3ccccc3O)c2C(c2ccc(F)cc2)N1CC1CCCO1 (configuration not stated),0.79
8,CCc1nnc(NC(=O)c2c(O)c3c([nH]c2=O)CCCC3)s1,-0.461
9,CC(C)OCC1CC(CC(=O)NC(=S)Nc2cccc([N+](=O)[O-])c2)C(=O)O1 (configuration not stated),-0.273
10,CC1(C)CC(OC(=O)c2ccccc2)CC(C)(C)N1,0.604
11,Cc1cccc(NC(=O)CSc2nc3ccc(NC(=O)CSc4nnnn4-c4ccccc4)cc3s2)c1C,0.181
12,Clc1ccccc1Oc1cnc2ccccc2n1,-0.184
13,Cc1cc(-c2ccccc2C(=O)NCc2ccccc2)on1,-0.0922
14,O=C(N/N=C/CCc1ccccc1)c1ccccc1,-0.78
15,Cc1ccc(S(=O)(=O)N2CCCCC2C(=O)N2CCN(C)CC2)cc1 (configuration not stated),-0.0911
16,CCOc1ccc(N2C(=O)CS/C2=N/NC(=O)COc2ccc3ccccc3c2)cc1,0.0846
17,COC(=O)c1cc(NC(=O)CC2SCCNC2=O)cc(C(=O)OC)c1 (configuration not stated),-0.963
18,O=C(CSc1nnnn1-c1ccc2c(c1)CCC2)NCc1cccs1,-0.44
19,CCNC(=O)CC1C(=O)N(c2ccccc2)C(=O)N1Cc1ccc(OC)cc1 (configuration not stated),0.245
20,Cc1nccn1-c1cc(C(C)(C)C)nc2c(-c3ccccc3)cnn12,-0.158
